Some of the results follow. No stated cut-off is given here; in the data, active = 3.2 or more and inactive = the rest. Only a few entries rise above the background.
Legend:
Experiment in all cases: enrichment score (SH2-bound / input frequency) (ratio); bacterial display of known human phosphotyrosine sites (pTyr-Var adds point mutants) read by sequencing; higher = stronger binding; tyrosines were phosphorylated by kinases first
Settings in all cases: peptide library: pTyr-Var
SHP2 C-SH2 domain E139D = target: SHP2 C-SH2 domain E139D
[1] = target: SHP2 C-SH2 domain wild-type
SHP2 N-SH2 domain L43F = target: SHP2 N-SH2 domain L43F
SHP2 N-SH2 domain T42A = target: SHP2 N-SH2 domain T42A
SHP2 N-SH2 domain T52S = target: SHP2 N-SH2 domain T52S
[2] = target: SHP2 N-SH2 domain wild-type

Measured: enrichment score
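Further: displayed peptides selected on beads carrying the immobilized SH2 domain, with library peptides lacking any tyrosine serving as negative controls.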

LKMLVYLDMSK [LRRC7_Y234]
inactive: SHP2 C-SH2 domain E139D 2.61 | [1] 2.7 | SHP2 N-SH2 domain L43F 2.4 | SHP2 N-SH2 domain T42A 2.3 | SHP2 N-SH2 domain T52S 2.25
active: [2] 3.28

KDAGDYKYKAK [LRIT3_Y326_C328Y]
inactive: SHP2 C-SH2 domain E139D 0.356 | [1] 0.726 | SHP2 N-SH2 domain L43F 0.565 | SHP2 N-SH2 domain T42A 0.606 | SHP2 N-SH2 domain T52S 0.504 | [2] 0.61

VCDSDYSASRW [LRP5_Y1552]
inactive: SHP2 C-SH2 domain E139D 0.457 | [1] 0.578 | SHP2 N-SH2 domain L43F 0.57 | SHP2 N-SH2 domain T42A 0.58 | SHP2 N-SH2 domain T52S 0.61 | [2] 0.605

PGIRMYQVQYN [LRFN1_Y454]
inactive: SHP2 C-SH2 domain E139D 2.58 | [1] 2.09 | SHP2 N-SH2 domain L43F 2.78 | SHP2 N-SH2 domain T42A 1.9 | SHP2 N-SH2 domain T52S 2.68 | [2] 2.4

QHNPEYVQQAS [LRRC7_Y1058]
inactive: SHP2 C-SH2 domain E139D 0.4 | [1] 0.36 | SHP2 N-SH2 domain L43F 0.34 | SHP2 N-SH2 domain T42A 0.522 | SHP2 N-SH2 domain T52S 0.451 | [2] 0.61

RSSKRYLKTRS [LPL_Y329_M328R]
inactive: SHP2 C-SH2 domain E139D 0.264 | [1] 0.267 | SHP2 N-SH2 domain L43F 0.286 | SHP2 N-SH2 domain T42A 0.329 | SHP2 N-SH2 domain T52S 0.205 | [2] 0.241

RSSKMYFKTRS [LPL_Y329_L330F]
inactive: SHP2 C-SH2 domain E139D 0.52 | [1] 0.413 | SHP2 N-SH2 domain L43F 0.545 | SHP2 N-SH2 domain T42A 0.518 | SHP2 N-SH2 domain T52S 0.446 | [2] 0.572

LKKLEYLNLPL [LRRC6_Y70_A74P]
active: SHP2 N-SH2 domain L43F 3.55 | SHP2 N-SH2 domain T42A 7.67 | SHP2 N-SH2 domain T52S 4.79
inactive: SHP2 C-SH2 domain E139D 1.68 | [1] 2.13 | [2] 1.93

RSSKMYPKTRS [LPL_Y329_L330P]
inactive: SHP2 C-SH2 domain E139D 0.496 | [1] 0.291 | SHP2 N-SH2 domain L43F 0.25 | SHP2 N-SH2 domain T42A 0.26 | SHP2 N-SH2 domain T52S 0.531 | [2] 0.54

DRLAVCIDRVR [LMNA_Y45_Y45C]
inactive: SHP2 C-SH2 domain E139D 0.507 | [1] 0.784 | SHP2 N-SH2 domain L43F 0.666 | SHP2 N-SH2 domain T42A 0.611 | SHP2 N-SH2 domain T52S 0.672 | [2] 0.763

KDAGDYKCKAK [LRIT3_Y326]
inactive: SHP2 C-SH2 domain E139D 0.816 | [1] 0.806 | SHP2 N-SH2 domain L43F 0.938 | SHP2 N-SH2 domain T42A 0.661 | SHP2 N-SH2 domain T52S 0.649 | [2] 1.06

NGSFRYVIISQ [LRP1B_Y1988]
inactive: SHP2 C-SH2 domain E139D 1.27 | [1] 2.43 | SHP2 N-SH2 domain L43F 1.15 | SHP2 N-SH2 domain T42A 2.17 | SHP2 N-SH2 domain T52S 1.58 | [2] 1.1

DQGEQYKKELE [LMNA_Y259_V256G]
inactive: SHP2 C-SH2 domain E139D 0.511 | [1] 0.641 | SHP2 N-SH2 domain L43F 0.547 | SHP2 N-SH2 domain T42A 0.395 | SHP2 N-SH2 domain T52S 0.526 | [2] 0.665

RAEAQYLLVSN [LRIG1_Y1054]
inactive: SHP2 C-SH2 domain E139D 0.81 | [1] 0.892 | SHP2 N-SH2 domain L43F 0.791 | SHP2 N-SH2 domain T42A 0.687 | SHP2 N-SH2 domain T52S 0.731 | [2] 0.679

MEIHAYRKLLE [LMNA_Y376]
inactive: SHP2 C-SH2 domain E139D 0.629 | [1] 0.737 | SHP2 N-SH2 domain L43F 0.859 | SHP2 N-SH2 domain T42A 0.719 | SHP2 N-SH2 domain T52S 0.896 | [2] 0.86

GGGMIYPLDLF [LINC01600_Y3]
inactive: SHP2 C-SH2 domain E139D 1.37 | [1] 1.24 | SHP2 N-SH2 domain L43F 0.977 | SHP2 N-SH2 domain T42A 1.21 | SHP2 N-SH2 domain T52S 1.06 | [2] 1.02

ATVRPYRPFII [LRP5_Y1528_A1525V_YF]
inactive: SHP2 C-SH2 domain E139D 1 | [1] 0.892 | SHP2 N-SH2 domain L43F 0.732 | SHP2 N-SH2 domain T42A 0.703 | SHP2 N-SH2 domain T52S 0.679 | [2] 0.877

DRLAVYIDRVS [LMNA_Y45_R50S]
inactive: SHP2 C-SH2 domain E139D 0.986 | [1] 0.851 | SHP2 N-SH2 domain L43F 0.871 | SHP2 N-SH2 domain T42A 0.79 | SHP2 N-SH2 domain T52S 0.806 | [2] 0.922

NSNAAYEQSHF [LRIF1_Y714]
inactive: SHP2 C-SH2 domain E139D 0.539 | [1] 0.598 | SHP2 N-SH2 domain L43F 0.586 | SHP2 N-SH2 domain T42A 0.573 | SHP2 N-SH2 domain T52S 0.572 | [2] 0.601

QHNPEYVQQAT [LRRC7_Y1058_S1063T]
inactive: SHP2 C-SH2 domain E139D 0.589 | [1] 0.621 | SHP2 N-SH2 domain L43F 1.02 | SHP2 N-SH2 domain T42A 0.323 | SHP2 N-SH2 domain T52S 0.477 | [2] 0.551

QQLDEYQELLD [LMNA_Y359]
inactive: SHP2 C-SH2 domain E139D 0.607 | [1] 0.605 | SHP2 N-SH2 domain L43F 0.493 | SHP2 N-SH2 domain T42A 0.761 | SHP2 N-SH2 domain T52S 0.634 | [2] 0.546

CQGSLYPSNHD [LRIG1_Y996]
inactive: SHP2 C-SH2 domain E139D 0.45 | [1] 0.628 | SHP2 N-SH2 domain L43F 0.675 | SHP2 N-SH2 domain T42A 0.596 | SHP2 N-SH2 domain T52S 0.546 | [2] 0.586

FQKNIYSEELR [LMNA_Y211]
inactive: SHP2 C-SH2 domain E139D 0.996 | [1] 0.644 | SHP2 N-SH2 domain L43F 1.25 | SHP2 N-SH2 domain T42A 0.944 | SHP2 N-SH2 domain T52S 0.946 | [2] 1.7

TLARLYHRDST [LRIG1_Y1029_P1031R]
inactive: SHP2 C-SH2 domain E139D 0.68 | [1] 0.678 | SHP2 N-SH2 domain L43F 0.507 | SHP2 N-SH2 domain T42A 0.551 | SHP2 N-SH2 domain T52S 0.697 | [2] 0.896

QYNPEYVQQAS [LRRC7_Y1058_H1054Y]
inactive: SHP2 C-SH2 domain E139D 1.03 | [1] 0.908 | SHP2 N-SH2 domain L43F 0.969 | SHP2 N-SH2 domain T42A 0.858 | SHP2 N-SH2 domain T52S 0.74 | [2] 0.829

AWVARYIFKRL [LPCAT3_Y348]
inactive: SHP2 C-SH2 domain E139D 2.97 | [1] 2.5 | SHP2 N-SH2 domain L43F 2.52 | SHP2 N-SH2 domain T42A 2.32 | SHP2 N-SH2 domain T52S 2.88 | [2] 2.31

MYQVQYNSSVD [LRFN1_Y458]
inactive: SHP2 C-SH2 domain E139D 0.98 | [1] 0.888 | SHP2 N-SH2 domain L43F 0.923 | SHP2 N-SH2 domain T42A 0.907 | SHP2 N-SH2 domain T52S 0.962 | [2] 1.11

MEIHAYLKLLE [LMNA_Y376_R377L]
inactive: SHP2 C-SH2 domain E139D 2.37 | [1] 2.71 | SHP2 N-SH2 domain L43F 2.14 | SHP2 N-SH2 domain T42A 2.16 | SHP2 N-SH2 domain T52S 2.37 | [2] 3.01

DQVEQYNKELE [LMNA_Y259_K260N]
inactive: SHP2 C-SH2 domain E139D 1.39 | [1] 1.19 | SHP2 N-SH2 domain L43F 1.14 | SHP2 N-SH2 domain T42A 0.721 | SHP2 N-SH2 domain T52S 0.768 | [2] 0.986

ATARPYRPFII [LRP5_Y1528_YF]
inactive: SHP2 C-SH2 domain E139D 1.05 | [1] 0.838 | SHP2 N-SH2 domain L43F 1.11 | SHP2 N-SH2 domain T42A 0.986 | SHP2 N-SH2 domain T52S 1.04 | [2] 1.12

RTESQYQENRG [LRCH3_Y354_R350T]
inactive: SHP2 C-SH2 domain E139D 0.481 | [1] 2.69 | SHP2 N-SH2 domain L43F 0.545 | SHP2 N-SH2 domain T42A 0.416 | SHP2 N-SH2 domain T52S 0.479 | [2] 0.817

GIKAAYEAELG [LMNA_Y81]
inactive: SHP2 C-SH2 domain E139D 0.925 | [1] 0.731 | SHP2 N-SH2 domain L43F 0.814 | SHP2 N-SH2 domain T42A 0.694 | SHP2 N-SH2 domain T52S 0.925 | [2] 0.936

MFRVQYNSSVD [LRFN1_Y458_Q455R_YF]
inactive: SHP2 C-SH2 domain E139D 1.43 | [1] 1.36 | SHP2 N-SH2 domain L43F 1.75 | SHP2 N-SH2 domain T42A 1.76 | SHP2 N-SH2 domain T52S 1.73 | [2] 1.56

LKMLVYMDMSK [LRRC7_Y234_L235M]
inactive: SHP2 C-SH2 domain E139D 1.71 | [1] 1.6 | SHP2 N-SH2 domain L43F 1.62 | SHP2 N-SH2 domain T42A 1.35 | SHP2 N-SH2 domain T52S 1.91 | [2] 1.95

KDAGDYKFKAK [LRIT3_Y326_C328Y_YF]
inactive: SHP2 C-SH2 domain E139D 0.567 | [1] 0.467 | SHP2 N-SH2 domain L43F 0.66 | SHP2 N-SH2 domain T42A 0.488 | SHP2 N-SH2 domain T52S 0.479 | [2] 0.512

GGGMFYPLDLF [LINC01600_Y3_I2F]
inactive: SHP2 C-SH2 domain E139D 1.37 | [1] 1.34 | SHP2 N-SH2 domain L43F 1.27 | SHP2 N-SH2 domain T42A 1.24 | SHP2 N-SH2 domain T52S 1.24 | [2] 1.28

DRLAVYIDRVR [LMNA_Y45]
inactive: SHP2 C-SH2 domain E139D 0.791 | [1] 0.701 | SHP2 N-SH2 domain L43F 0.751 | SHP2 N-SH2 domain T42A 0.601 | SHP2 N-SH2 domain T52S 0.638 | [2] 0.788
